In article PMC4336329 (PLoS ONE, 2015):
The campaign covered roughly 310,000 compounds. About 2,200 (0.71%) showed an effect of 50% or more. The effect is printed as a negative number. This is one part of the list.

molecular target: human ether-à-go-go-related gene (hERG) potassium channel (human, UniProt Q12809); test: primary screen, population patch clamp on CHO cells stably expressing hERG
Sequence (Q12809 whole entry, looked up): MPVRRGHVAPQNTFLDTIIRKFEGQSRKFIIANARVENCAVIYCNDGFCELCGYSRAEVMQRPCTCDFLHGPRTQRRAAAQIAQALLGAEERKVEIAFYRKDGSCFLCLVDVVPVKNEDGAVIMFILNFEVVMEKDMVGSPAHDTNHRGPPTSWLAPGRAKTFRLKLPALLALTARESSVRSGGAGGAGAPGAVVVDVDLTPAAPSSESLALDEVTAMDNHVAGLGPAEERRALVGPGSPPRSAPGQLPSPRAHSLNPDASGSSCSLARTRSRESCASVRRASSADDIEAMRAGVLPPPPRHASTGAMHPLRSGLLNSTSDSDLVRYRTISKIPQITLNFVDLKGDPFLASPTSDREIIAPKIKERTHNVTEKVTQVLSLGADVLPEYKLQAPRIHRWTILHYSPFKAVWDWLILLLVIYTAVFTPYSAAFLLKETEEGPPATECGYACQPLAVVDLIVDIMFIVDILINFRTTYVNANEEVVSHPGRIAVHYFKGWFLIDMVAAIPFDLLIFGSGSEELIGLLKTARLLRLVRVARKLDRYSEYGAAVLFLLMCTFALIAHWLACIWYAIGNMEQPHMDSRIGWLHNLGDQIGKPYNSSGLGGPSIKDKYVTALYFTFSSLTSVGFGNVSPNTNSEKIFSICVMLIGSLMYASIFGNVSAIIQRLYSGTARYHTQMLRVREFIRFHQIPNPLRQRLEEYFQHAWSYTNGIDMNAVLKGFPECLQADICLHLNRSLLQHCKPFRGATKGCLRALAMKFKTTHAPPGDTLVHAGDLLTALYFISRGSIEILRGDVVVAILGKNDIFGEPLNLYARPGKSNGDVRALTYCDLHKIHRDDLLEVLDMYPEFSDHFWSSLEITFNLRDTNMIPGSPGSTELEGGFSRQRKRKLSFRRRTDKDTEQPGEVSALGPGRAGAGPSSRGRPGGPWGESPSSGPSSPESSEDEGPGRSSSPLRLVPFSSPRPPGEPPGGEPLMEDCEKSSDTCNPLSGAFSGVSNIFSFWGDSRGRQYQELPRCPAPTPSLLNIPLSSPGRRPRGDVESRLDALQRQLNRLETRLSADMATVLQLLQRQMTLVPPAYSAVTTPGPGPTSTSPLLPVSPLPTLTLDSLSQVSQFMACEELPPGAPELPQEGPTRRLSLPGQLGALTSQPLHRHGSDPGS

**Q.** Which “hERG current change (%, negative = inhibition) at 1uM” value does the source give for `Cn1nccc1C(=O)Nn1cnnc1` here?
**A.** 13.7%

**Q.** `Cc1cccc(N(Cc2ccccc2)C(=O)c2ccc(CS(C)(=O)=O)cc2)c1` was tested. Which “hERG current change (%, negative = inhibition) at 1uM” value did it give?
**A.** 8.94%

**Q.** How did the “hERG current change (%, negative = inhibition) at 1uM” value turn out when `N/C(=N\N=C\c1ccc([N+](=O)[O-])cc1)c1nonc1N` was run?
**A.** 13.3%

**Q.** Which “hERG current change (%, negative = inhibition) at 1uM” value does the source give for `COc1cc(C(=O)Nc2cc(C(F)(F)F)ccc2Cl)cc(OC)c1OC` here?
**A.** 12.2%

**Q.** How did the “hERG current change (%, negative = inhibition) at 1uM” value turn out when `Cc1cccc(/C=N/NC(=O)c2ccc(NC(=O)c3ccccc3C)cc2)n1` was run?
**A.** 10.5%

**Q.** For `O=C(N/N=C1\CCCc2ccccc21)c1cccc(Br)c1`, which “hERG current change (%, negative = inhibition) at 1uM” value is on record?
**A.** 9.96%

**Q.** Which “hERG current change (%, negative = inhibition) at 1uM” value does the source give for `CC(C)Cc1cc(C(=O)O)c2ccccc2n1` here?
**A.** -0.885%

**Q.** How did the “hERG current change (%, negative = inhibition) at 1uM” value turn out when `O=c1[nH]cccc1-c1nc2cc(Cl)ccc2n1Cc1ccccc1` was run?
**A.** 7.84%

**Q.** Which “hERG current change (%, negative = inhibition) at 1uM” value does the source give for `CC(=O)OCc1cc2cccc(C)c2[nH]c1=O` here?
**A.** 0.62%

**Q.** How did the “hERG current change (%, negative = inhibition) at 1uM” value turn out when `CN(CC(=O)Nc1ccc(Cl)c(C(F)(F)F)c1)C(=O)c1cccnc1Sc1ccccc1` was run?
**A.** 8.13%

**Q.** For `CC(C)C(NC(=O)c1ccc(C(C)(C)C)cc1)C(=O)N1CCC(C(N)=O)CC1` (centres unmarked), which “hERG current change (%, negative = inhibition) at 1uM” value is on record?
**A.** 1.28%

**Q.** With `CN(C(=O)COC(=O)c1ccc2c(c1)OCO2)c1c(N)n(Cc2ccccc2)c(=O)[nH]c1=O` as the compound, how does the “hERG current change (%, negative = inhibition) at 1uM” value read?
**A.** 17.7%

**Q.** `CN1C(=O)/C(=C/c2ccc(Cl)s2)C(=O)NC1=S` was tested. Which “hERG current change (%, negative = inhibition) at 1uM” value did it give?
**A.** 14.1%

**Q.** For `COc1cc(C(=O)NCc2nnc(SCC(=O)N3CCOCC3)o2)cc(OC)c1OC`, which “hERG current change (%, negative = inhibition) at 1uM” value is on record?
**A.** 16.7%

**Q.** `CCOc1ccc(CCNC(=O)COC(=O)c2cccc(S(=O)(=O)N3CCCCC3)c2)cc1OCC` was tested. Which “hERG current change (%, negative = inhibition) at 1uM” value did it give?
**A.** 4.91%

**Q.** Which “hERG current change (%, negative = inhibition) at 1uM” value does the source give for `CCOC(=O)C1=C(C)NC(C)=C(C(=O)OC)C1c1cccc(Cl)c1Cl` (centres unmarked) here?
**A.** 12.4%

**Q.** How did the “hERG current change (%, negative = inhibition) at 1uM” value turn out when `COC(=O)N1C(=O)[C@](c2ccsc2)(C(C)C)N1C(=O)OC` was run?
**A.** 13.8%

**Q.** With `O=C(N/N=C/c1ccc(C(=O)O)cc1)C(=O)N1CCCCCC1` as the compound, how does the “hERG current change (%, negative = inhibition) at 1uM” value read?
**A.** 16.4%

**Q.** `C=CCn1c(SC(C)C#N)nc2sc(CC)cc2c1=O` (centres unmarked) was tested. Which “hERG current change (%, negative = inhibition) at 1uM” value did it give?
**A.** -8.92%

**Q.** How did the “hERG current change (%, negative = inhibition) at 1uM” value turn out when `CCN1C(=O)CC(c2cccnc2)=Nc2ccccc21` was run?
**A.** -1.98%

**Q.** `COc1cccc2c1OC[C@@H](CO)[C@H]2N(C)C(=O)Nc1ccccc1` was tested. Which “hERG current change (%, negative = inhibition) at 1uM” value did it give?
**A.** 7.72%

**Q.** How did the “hERG current change (%, negative = inhibition) at 1uM” value turn out when `CCOc1ccccc1N1CCN(C(=O)c2ccc3c(c2)OCO3)CC1` was run?
**A.** 5.9%

**Q.** How did the “hERG current change (%, negative = inhibition) at 1uM” value turn out when `Cc1ccc(NC(=O)Cc2nnc(SCC(=O)Nc3ccccc3)n2C)cc1` was run?
**A.** 0.67%

**Q.** For `O=C(Nc1ccc(F)cc1)N1CC2CC(C1)c1cccc(=O)n1C2` (centres unmarked), which “hERG current change (%, negative = inhibition) at 1uM” value is on record?
**A.** 18.5%

**Q.** Which “hERG current change (%, negative = inhibition) at 1uM” value does the source give for `N#CC1c2ccccc2C=CN1C(=O)c1ccccc1` (centres unmarked) here?
**A.** 5.08%

**Q.** How did the “hERG current change (%, negative = inhibition) at 1uM” value turn out when `Cc1ccc(NC(=O)CSc2nc(-c3ccco3)nc3cc(=O)[nH]n23)c(Cl)c1` was run?
**A.** 6.45%

**Q.** How did the “hERG current change (%, negative = inhibition) at 1uM” value turn out when `COCCn1c(C(C)C)nc2ccccc21` was run?
**A.** 7.6%

**Q.** For `Cc1sc2ncn3cnnc3c2c1C`, which “hERG current change (%, negative = inhibition) at 1uM” value is on record?
**A.** 5.42%

**Q.** How did the “hERG current change (%, negative = inhibition) at 1uM” value turn out when `CCc1cc(=O)oc2c(C)c(OC(C)C(=O)N3CC[C@@]4(O)CCCC[C@H]4C3)ccc12` (some centres unmarked) was run?
**A.** 6.75%

**Q.** How did the “hERG current change (%, negative = inhibition) at 1uM” value turn out when `O=C(NCCc1ccccc1F)C1CCC(=O)N(Cc2ccc(Cl)cc2)C1` (centres unmarked) was run?
**A.** -1.6%

**Q.** How did the “hERG current change (%, negative = inhibition) at 1uM” value turn out when `Cc1ccc(-c2nc(NCCCO)c3ccccc3n2)cc1` was run?
**A.** 2.19%

**Q.** `O=C1Nc2cc(C(=O)N3CCC4(CC3)OCCO4)ccc2NC1CSCc1cccc(F)c1` (centres unmarked) was tested. Which “hERG current change (%, negative = inhibition) at 1uM” value did it give?
**A.** 7.35%

**Q.** How did the “hERG current change (%, negative = inhibition) at 1uM” value turn out when `Cc1cc(C)nc(N2CCN(C(=O)CCC(=O)Nc3nnc(C(C)C)s3)CC2)n1` was run?
**A.** 15%

**Q.** For `Cc1cccc(OCC(=O)Nc2ccc3c(c2)C(=O)NC3=O)c1`, which “hERG current change (%, negative = inhibition) at 1uM” value is on record?
**A.** 3.6%

**Q.** `COc1cccc(-c2nc(NC(C)(C)C)c3ccccc3n2)c1O` was tested. Which “hERG current change (%, negative = inhibition) at 1uM” value did it give?
**A.** 8.34%

**Q.** Which “hERG current change (%, negative = inhibition) at 1uM” value does the source give for `CC(C)(C)c1ccccc1OCC(=O)NCc1ccccc1` here?
**A.** 11.5%

**Q.** `O=C1NC(Cc2c[nH]c3ccccc23)C(=O)N1Cc1ccccc1` (centres unmarked) was tested. Which “hERG current change (%, negative = inhibition) at 1uM” value did it give?
**A.** 10.2%

**Q.** `Cc1ccnc(NC(=O)CCC(=O)N(CC(=O)NCc2ccccc2)Cc2ccco2)c1` was tested. Which “hERG current change (%, negative = inhibition) at 1uM” value did it give?
**A.** -0.181%

**Q.** `CCCCNC(=O)N1CCN(Cc2cccc(F)c2)CC1` was tested. Which “hERG current change (%, negative = inhibition) at 1uM” value did it give?
**A.** 10.5%

**Q.** How did the “hERG current change (%, negative = inhibition) at 1uM” value turn out when `CCc1cc(C(=O)NNC(=S)NCc2ccccc2)cs1` was run?
**A.** -3.36%

**Q.** `CC(=O)N(c1nc(CCl)cs1)c1cccc(C)c1C` was tested. Which “hERG current change (%, negative = inhibition) at 1uM” value did it give?
**A.** 2.77%

**Q.** How did the “hERG current change (%, negative = inhibition) at 1uM” value turn out when `OCC[C@H]1C[C@@H](O)[C@H](O)[C@@]2(Cc3ccccc3CCO2)O1` was run?
**A.** 9.28%

**Q.** For `COc1ccc(S(=O)(=O)Oc2ccccc2C(=S)N2CCOCC2)cc1`, which “hERG current change (%, negative = inhibition) at 1uM” value is on record?
**A.** 13.5%

**Q.** How did the “hERG current change (%, negative = inhibition) at 1uM” value turn out when `Cc1ccc2[nH]c(-c3ccccc3)cc(=O)c2c1` was run?
**A.** 15.1%

**Q.** Which “hERG current change (%, negative = inhibition) at 1uM” value does the source give for `CC(NC(=O)c1ccco1)c1nc(-c2ccccc2)no1` (centres unmarked) here?
**A.** 11.9%

**Q.** How did the “hERG current change (%, negative = inhibition) at 1uM” value turn out when `COc1ccc2[nH]c3c(N4CCc5ccccc5C4)ncnc3c2c1` was run?
**A.** 13%

**Q.** `O=C(Nc1ccccc1C(=O)N1CCCCC1)c1cccs1` was tested. Which “hERG current change (%, negative = inhibition) at 1uM” value did it give?
**A.** 4.05%

**Q.** `Cc1ccc(-c2csc(NC(=O)c3cc([N+](=O)[O-])ccc3N3CCOCC3)n2)cc1` was tested. Which “hERG current change (%, negative = inhibition) at 1uM” value did it give?
**A.** 9.16%

**Q.** `O=C1OC(c2ccccc2)/C(=C(/O)c2ccc(Cl)cc2)C1=O` (centres unmarked) was tested. Which “hERG current change (%, negative = inhibition) at 1uM” value did it give?
**A.** 18%

**Q.** Which “hERG current change (%, negative = inhibition) at 1uM” value does the source give for `O=C(Nc1ccccn1)C12CC3CC(C1)CC(C(=O)Nc1ccccn1)(C3)C2` here?
**A.** 7.16%

**Q.** How did the “hERG current change (%, negative = inhibition) at 1uM” value turn out when `CC(=O)Oc1ccc(/C=C2/Oc3ccccc3C2=O)cc1` was run?
**A.** 14.5%

**Q.** With `O=C1NCC(=O)N2C(c3ccccc3)c3[nH]c4ccccc4c3C[C@@H]12` (some centres unmarked) as the compound, how does the “hERG current change (%, negative = inhibition) at 1uM” value read?
**A.** 9.59%

**Q.** Which “hERG current change (%, negative = inhibition) at 1uM” value does the source give for `O=C(NCCCN1CCOCC1)c1cccc(NS(=O)(=O)c2ccc(Br)cc2)c1` here?
**A.** 10.7%

**Q.** With `CSc1ccccc1NC(=O)CN(C)CC(=O)c1c(C)[nH]c2ccccc12` as the compound, how does the “hERG current change (%, negative = inhibition) at 1uM” value read?
**A.** 17.7%

**Q.** Which “hERG current change (%, negative = inhibition) at 1uM” value does the source give for `Cc1ccccc1-c1nnc(-c2ccc(Br)cc2)o1` here?
**A.** 11%

**Q.** How did the “hERG current change (%, negative = inhibition) at 1uM” value turn out when `CCOc1cc(/C=N/O)ccc1OCc1ccccc1F` was run?
**A.** 6.36%

**Q.** For `CCc1cccc(NC(=O)NC2CCCCC2)c1`, which “hERG current change (%, negative = inhibition) at 1uM” value is on record?
**A.** 17.7%

**Q.** `Fc1ccc(C2CC(c3ccco3)=Nc3ccccc3S2)cc1` (centres unmarked) was tested. Which “hERG current change (%, negative = inhibition) at 1uM” value did it give?
**A.** 6.59%

**Q.** With `CCNC(=O)NC(=O)C(C)OC(=O)Cc1coc2cc3c(cc12)CCC3` (centres unmarked) as the compound, how does the “hERG current change (%, negative = inhibition) at 1uM” value read?
**A.** 4.16%
